Data published in the supplement of paper PMC9446081.
About 220 (0.56%) of roughly 39,000 compounds showed activity. The list shows a part of the results.

What follows are compounds tested on Escherichia coli K-12 BW25113 (assay: relative growth (OD600 normalised to plate interquartile mean) (fraction); higher = less growth inhibition, active = 0.2 or less). Conditions: 50 µM; LB; incubation time: overnight (16-24 h).
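Also: static incubation at 37 °C against the wild-type strain, values averaged over two biological replicates.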

Row | Compound | relative growth
1 | C[C@H](CO)N1C[C@H](C)[C@@H](CN(C)C(=O)Nc2cccc3ccccc23)Oc2ccc(NC(=O)NC3CCCCC3)cc2C1=O | inactive: 0.946
2 | C[C@@H]1CN([C@H](C)CO)C(=O)Cc2cc(NC(=O)Cc3cn(C)c4ccccc34)ccc2O[C@H]1CN(C)C | inactive: 1.01
3 | OCCNC(=S)Nc1ccccc1 | inactive: 0.872
4 | C[C@H]1CN([C@@H](C)CO)C(=O)Cc2cc(NC(=O)Nc3ccc(C(F)(F)F)cc3)ccc2O[C@@H]1CN(C)C(=O)Nc1cccc2ccccc12 | inactive: 1.01
5 | Cc1ccc(S(=O)(=O)N(C)C[C@H]2OCCCC[C@H](C)Oc3ccc(NC(=O)c4ccccc4)cc3C(=O)N([C@H](C)CO)C[C@H]2C)cc1 | inactive: 0.992
6 | O=C(C[C@@H]1CC[C@@H]2[C@H](COC[C@H](O)CN2C(=O)Nc2ccc(Cl)c(Cl)c2)O1)NCc1ccc(Cl)c(Cl)c1 | inactive: 0.97
7 | C[C@H]1CCCCO[C@H](CN(C)C(=O)C2CCCCC2)[C@@H](C)CN([C@@H](C)CO)C(=O)c2cc(NC(=O)C3CCCCC3)ccc2O1 | inactive: 1
8 | CN(Cc1ccc(/C=C/C(=O)Nc2ccc(-c3cccs3)cc2N)cc1)CC12CC3CC(CC(C3)C1)C2 | inactive: 1.01
9 | Cc1ccc(-c2c[nH]c(=S)[nH]2)cc1 | inactive: 0.955
10 | C[C@@H]1CCCCO[C@H](CN(C)Cc2ccc3c(c2)OCO3)[C@@H](C)CN([C@H](C)CO)C(=O)c2cc(NC(=O)Nc3ccc(F)cc3)ccc2O1 | inactive: 0.918
11 | Cc1noc(C)c1S(=O)(=O)N(C)C[C@H]1Oc2ccc(NC(=O)Cn3cnnn3)cc2C(=O)N([C@H](C)CO)C[C@H]1C | inactive: 1.02
12 | C[C@@H]1CN([C@H](C)CO)C(=O)c2cc(NC(=O)CCN3CCOCC3)ccc2O[C@@H]1CN(C)CC1CC1 | inactive: 0.983
13 | C[C@H]1CN([C@@H](C)CO)C(=O)Cc2cc(NC(=O)NC3CCCCC3)ccc2O[C@@H]1CN(C)Cc1ccc(Oc2ccccc2)cc1 | inactive: 0.913
14 | O=C(C[C@@H]1CC[C@H]2[C@@H](COC[C@@H](O)CN2S(=O)(=O)c2ccccc2)O1)NCCN1CCCCC1 | inactive: 1
15 | C[C@H](CO)N1C[C@H](C)[C@H](CN(C)S(=O)(=O)c2cn(C)cn2)Oc2ccc(NS(=O)(=O)c3cccs3)cc2C1=O | inactive: 1
16 | C[C@H]1CN([C@@H](C)CO)C(=O)c2cccc(NS(=O)(=O)c3ccccc3)c2O[C@@H]1CN(C)S(=O)(=O)c1cn(C)cn1 | inactive: 1
17 | CC(C)=CCC/C(C)=C/CC/C(C)=C/CCC(=O)OC/C=C(\C)CCC=C(C)C | inactive: 0.986
18 | COc1ccc(C(=O)c2ccccc2)c(O)c1 | inactive: 0.934
19 | COc1ccccc1C#Cc1ccc2c(c1)O[C@@H](CN(C)Cc1cncnc1)[C@H](C)CN([C@@H](C)CO)S2(=O)=O | inactive: 1.02
20 | C[C@@H]1CN([C@H](C)CO)C(=O)Cc2cc(NS(=O)(=O)c3cn(C)cn3)ccc2O[C@@H]1CN(C)S(=O)(=O)c1cn(C)cn1 | inactive: 0.981
21 | COc1ccc2c3c(n(c2c1)C)[C@H](CO)N(C[C@]13CCN(CC1)C(=O)CN(C)C)S(=O)(=O)C | inactive: 1.03

Row | Compound | relative growth
22 | O=C(C[C@H]1CC[C@H]2[C@@H](COC[C@@H](O)CN2S(=O)(=O)c2ccc(F)cc2)O1)NCc1ccncn1 | inactive: 0.986
23 | COc1ccccc1C#Cc1cnc2c(c1)C(=O)N([C@@H](C)CO)C[C@H](C)[C@@H](CN(C)C(=O)CC1CC1)O2 | inactive: 1.01
24 | Cc1noc(C)c1NC(=O)N(C)C[C@H]1Oc2ccc(NS(C)(=O)=O)cc2C(=O)N([C@@H](C)CO)C[C@H]1C | inactive: 0.988
25 | CSCC[C@H]1NC(=O)NC1=O | inactive: 0.995
26 | C[C@H](CO)N1C[C@H](C)[C@H](CN(C)S(=O)(=O)c2ccc(F)cc2)Oc2ccc(NC(=O)CCN3CCOCC3)cc2C1=O | inactive: 1.01
27 | C[C@H]1CN([C@@H](C)CO)C(=O)Cc2cc(NC(=O)Cc3ccccc3)ccc2O[C@@H]1CN(C)Cc1ccc(Cl)c(Cl)c1 | inactive: 0.986
28 | C[C@@H]1CN([C@H](C)CO)C(=O)c2cccc(NC(=O)C3CCCCC3)c2O[C@@H]1CN(C)C(=O)Nc1cccc2ccccc12 | inactive: 1.02
29 | O=C(C[C@@H]1C=C[C@H](NS(=O)(=O)c2ccc(F)cc2)[C@H](CO)O1)NCc1ccc(Cl)c(Cl)c1 | inactive: 0.983
30 | C[C@@H]1CCCCO[C@H](CN(C)C(=O)c2ccccc2)[C@@H](C)CN([C@@H](C)CO)C(=O)c2cc(NC(=O)Nc3ccccc3)ccc2O1 | inactive: 0.992
31 | C[C@H](CO)N1C[C@H](C)[C@H](CN(C)C(=O)Nc2ccc3c(c2)OCO3)Oc2c(NC(=O)Nc3ccc(C(F)(F)F)cc3)cccc2C1=O | inactive: 0.998
32 | C#CCCCCCCCCCCCC(O)CC(O)COC(C)=O (configuration not stated) | inactive: 0.848
33 | CC1(C)C(=O)C=CC2(C)C1C=CC1(C)C2CCC2(C)C(c3ccoc3)OC(=O)C3OC312 (configuration not stated) | inactive: 1.16
34 | COc1ncnc(NS(=O)(=O)c2ccc(N)cc2)c1OC | inactive: 1.03
35 | C[C@H](CO)N1C[C@H](C)[C@@H](CN(C)C(=O)c2ccncc2)OCCCC[C@H](C)Oc2ccc(NS(=O)(=O)c3ccc(Cl)cc3)cc2C1=O | inactive: 0.999
36 | CCCNC(=O)c1cc2c(c(-c3cccc(-c4cccc(F)c4)c3)n1)[C@H](CCO)N([S@@](=O)C(C)(C)C)C2 | inactive: 0.955
37 | C[C@@H]1CCCCO[C@@H](CN(C)C(=O)c2ccccc2)[C@@H](C)CN([C@H](C)CO)C(=O)c2cc(NC(=O)c3ccccc3)ccc2O1 | inactive: 0.997
38 | CC(C)NC(=O)N(C)C[C@H]1Oc2ccc(NC(=O)C3CCCCC3)cc2C(=O)N([C@H](C)CO)C[C@H]1C | inactive: 0.998
39 | Cc1noc(C)c1S(=O)(=O)Nc1cccc2c1O[C@@H](CN(C)C(=O)Nc1ccc3c(c1)OCO3)[C@@H](C)CN([C@@H](C)CO)C2=O | inactive: 0.992
40 | CN1CCC(=C2c3ccccc3C=Cc3ccccc32)CC1.Cl | inactive: 1.1
41 | C[C@H](CO)N1C[C@H](C)[C@H](CN(C)Cc2ccc(-c3ccccc3)cc2)Oc2ccc(NC(=O)Nc3ccccc3)cc2CC1=O | inactive: 1.02
42 | NCCCC[C@@H](N)C(=O)N[C@@H](Cc1ccc(O)cc1)C(=O)N[C@@H](CCCCN)C(=O)O | inactive: 0.993

Row | Compound | relative growth
43 | O=C(CCCCCCC(=O)Nc1ccccc1O)N/N=C/[C@H](O)[C@@H](O)[C@H](O)[C@H](O)CO[C@H]1O[C@H](CO)[C@H](O)[C@H](O)[C@H]1O | inactive: 0.987
44 | COc1ccc(S(=O)(=O)Nc2cccc3c2O[C@@H](CN(C)S(=O)(=O)c2c(C)noc2C)[C@H](C)CN([C@@H](C)CO)C3=O)cc1 | inactive: 1.03
45 | C[C@@H]1CN([C@H](C)CO)C(=O)CCCn2nncc2CO[C@H]1CN(C)S(=O)(=O)c1ccccc1C#N | inactive: 0.977
46 | Cn1cncc1C(=O)O | inactive: 1.02
47 | CC(C)NC(=O)Nc1ccc2c(c1)C(=O)N([C@H](C)CO)C[C@H](C)[C@@H](CN(C)C(=O)Nc1cccc3ccccc13)OCCCC[C@H](C)O2 | inactive: 0.985
48 | NS(=O)(=O)c1cc2c(cc1C(F)(F)F)NCNS2(=O)=O | inactive: 1.15
49 | CC(=O)c1c(O)cc(O)cc1CC(=O)O | inactive: 1
50 | C[C@H](CO)N1C[C@H](C)[C@H](CN(C)S(=O)(=O)c2ccc(Cl)cc2)OCCCC[C@H](C)Oc2ccc(NC(=O)c3ccncc3)cc2C1=O | inactive: 1.02
51 | CN(Cc1ccc(C(C)(C)C)cc1)Cc1cccc2ccccc12.Cl | inactive: 1.09
52 | C[C@@H]1CN([C@H](C)CO)C(=O)Cc2cc(NC(=O)CCCCCC(=O)Nc3ccccc3N)ccc2O[C@@H]1CN(C)CC1CCCCC1 | inactive: 0.95
53 | C[C@@H]1CN([C@@H](C)CO)C(=O)c2cc(NC(=O)c3ccccc3)ccc2O[C@@H](C)CCCCO[C@@H]1CN(C)C(=O)Cc1ccccc1 | inactive: 0.982
54 | COc1ccc(S(=O)(=O)N2C[C@H](O)COC[C@@H]3O[C@H](CC(=O)NCCN4CCCCC4)CC[C@H]32)cc1 | inactive: 0.938
55 | C[C@H]1CCCCO[C@@H](CN(C)Cc2ccc(C(F)(F)F)cc2)[C@@H](C)CN([C@@H](C)CO)C(=O)c2cc(NC(=O)Nc3ccc4c(c3)OCO4)ccc2O1 | inactive: 0.915
56 | C[C@@H]1CN([C@H](C)CO)S(=O)(=O)c2ccc(C#CC3(O)CCCC3)cc2O[C@H]1CN(C)C(=O)Nc1ccc(F)cc1 | inactive: 0.981
57 | COc1ccc2c3c([nH]c2c1)[C@@H](CO)N(CC1CCCC1)C[C@]13CCN(CC1)C(=O)Nc1cccc(c1)F | inactive: 1.02
58 | CN1C(=O)c2cc(NC(=O)Cc3cccs3)ccc2OC[C@@H]2O[C@@H](CC(=O)NCCCN3CCOCC3)CC[C@@H]21 | inactive: 1.01
59 | C[C@H](CO)N1C[C@H](C)[C@H](CN(C)Cc2ccc(-c3ccccc3)cc2)Oc2ccc(NC(=O)Nc3ccc(C(F)(F)F)cc3)cc2C1=O | inactive: 1.01
60 | CO[C@@H]1CN(C)C(=O)c2cc(NC(=O)c3ccccc3)ccc2OC[C@H](C)N(C(=O)CN(C)C)C[C@H]1C | inactive: 1.02
61 | C[C@H](CO)N1C[C@H](C)[C@H](CN(C)C(=O)NC2CCCCC2)Oc2c(NC(=O)Nc3cccc4ccccc34)cccc2C1=O | inactive: 1.01
62 | Cc1noc(C)c1S(=O)(=O)Nc1ccc2c(c1)C(=O)N([C@H](C)CO)C[C@H](C)[C@H](CN(C)Cc1ccc(C(=O)O)cc1)O2 | inactive: 0.992
